In article PMC10668032 one finds binding signal data, which are given here for 172 sequences.

This is one part of the list. At the low end of the ranking the order means little.

For the assay, the target named is SIX1-Q177R homeodomain (UniProt Q15475). Briefly: universal protein binding microarray. The note with it: Universal all-10-mer PBM (8x60K, AMADID 030236), 300 nM GST-tagged protein, Alexa Fluor 488 anti-GST; buffer, salt, pH and temperature not stated; high values mean tight binding; most listed sequences are background and not binding sites; double strand, one strand shown.
As to CGCGTTAA, the binding signal was -0.068 E-score.

CTAGGGTA: the binding signal worked out at 0.236 E-score.

For the sequence CGGATTAG, the binding signal amounted to 0.0689 E-score.

Regarding CTGGAATA, the binding signal is -0.0741 E-score.

In the case of ATGTGTAA, the binding signal is 0.225 E-score.

As to CCACAGAG, the binding signal is 0.0617 E-score.

GATTCAGC: the binding signal is -0.0999 E-score.

On to ACCATGCT, for which the binding signal was 0.151 E-score.

Turning to CAATTTCG, the binding signal is 0.0106 E-score.

For the sequence ATGCAAGA, the binding signal was -0.25 E-score.

For CCGTAGAC, the binding signal is -0.127 E-score.

GCTACGCC: the binding signal was -0.0804 E-score.

As for GTAGGTCA, the binding signal is -0.072 E-score.

For the sequence GGTCTGTA, the binding signal was -0.0178 E-score.

As to ACAACTGC, the binding signal is -0.201 E-score.

For the sequence TAGGTTCA, the binding signal is -0.0045 E-score.

With TGCTCACA, the binding signal worked out at 0.0192 E-score.

On to AACGCCCT, for which the binding signal is -0.16 E-score.

With AATCCTGT, the binding signal is -0.0147 E-score.

With CGAGGTAA, the binding signal is -0.063 E-score.

Regarding CCGTTTAC, the binding signal was -0.0007 E-score.

Consider AACCTCGA, for which the binding signal is -0.182 E-score.

In the case of AGCATTCA, the binding signal was -0.122 E-score.

Take CTGGTAAG: the binding signal was determined as 0.0214 E-score.

For the sequence CCGAGCGC, the binding signal worked out at 0.0632 E-score.

As for CCCAATAG, the binding signal is -0.0482 E-score.

For the sequence CCAGCGAA, the binding signal is -0.0865 E-score.

Take GGGAGCAA: the binding signal is -0.25 E-score.

Regarding ACAGAAAA, the binding signal was -0.204 E-score.

As to GCCTCCTA, the binding signal is -0.0638 E-score.

On to ATGTGACA, for which the binding signal is 0.0732 E-score.

With ACGCCCAC, the binding signal is 0.208 E-score.

Turning to CATAAGGC, the binding signal is -0.12 E-score.

With CCAGTCAG, the binding signal was -0.199 E-score.

Turning to CACCTGCA, the binding signal came out at 0.213 E-score.

Turning to AAGTCGTA, the binding signal was -0.196 E-score.

Consider AGTGCAGG, for which the binding signal amounted to 0.084 E-score.

Turning to GGATAAGA, the binding signal was -0.118 E-score.

As for GAGTGACA, the binding signal was 0.242 E-score.

For the sequence GAACCAAC, the binding signal stood at 0.00366 E-score.

In the case of GGTGACTA, the binding signal was found to be 0.0602 E-score.

Regarding CCAAGCCC, the binding signal turned out to be 0.155 E-score.

As for CGAATCAA, the binding signal is -0.1 E-score.

On to ACTTTGAG, for which the binding signal is 0.0749 E-score.

On to ACTGCCTC, for which the binding signal was -0.0769 E-score.

In the case of TAAAAGAA, the binding signal was -0.058 E-score.

AACTAACT: the binding signal was -0.21 E-score.

Consider AACATGGG, for which the binding signal worked out at 0.0263 E-score.

As for AGTCCCAT, the binding signal was -0.308 E-score.

As for CGAAGAGA, the binding signal was -0.119 E-score.

As to AATCAGTA, the binding signal worked out at 0.0529 E-score.

For AAGTACCA, the binding signal was -0.0836 E-score.

For the sequence GAACTCTA, the binding signal was determined as 0.103 E-score.

As for AGGCCTAC, the binding signal was -0.139 E-score.

With CGAGGCTA, the binding signal is -0.0243 E-score.

Regarding GAATCGAA, the binding signal is 0.00791 E-score.

CTGTGACC: the binding signal worked out at 0.00507 E-score.

Consider AGACTTTG, for which the binding signal is -0.294 E-score.

Consider CACAGCAA, for which the binding signal is -0.0185 E-score.

As for CGTGGGTC, the binding signal turned out to be 0.0452 E-score.

ACAGATCC: the binding signal is -0.0792 E-score.

Consider ATGCACCC, for which the binding signal came out at 0.19 E-score.

In the case of ACTACAGA, the binding signal was -0.117 E-score.

Consider CCATGTAG, for which the binding signal was -0.17 E-score.

Regarding AAATATCG, the binding signal is -0.26 E-score.

Regarding ATCAGGCA, the binding signal was -0.266 E-score.

On to ATACAGAG, for which the binding signal worked out at 0.0455 E-score.

With GAATCATA, the binding signal came out at 0.0819 E-score.

On to TATCGAAA, for which the binding signal is -0.0429 E-score.

On to AGCGAGCT, for which the binding signal was -0.174 E-score.

Regarding AAGGTTCC, the binding signal is -0.0376 E-score.

For CTTAGCAA, the binding signal was -0.186 E-score.

Take GATAGTAA: the binding signal is -0.093 E-score.

For the sequence GATCATAA, the binding signal was 0.0569 E-score.

As for AATATTGA, the binding signal was -0.133 E-score.

Take CCCGATGC: the binding signal came out at 0.0856 E-score.

As for GCAACCCC, the binding signal worked out at 0.184 E-score.

As for AACGTCCT, the binding signal is -0.0587 E-score.

Regarding ATGCATTA, the binding signal was determined as 0.00219 E-score.

Regarding AAGGGTAT, the binding signal worked out at 0.262 E-score.

In the case of AGCACTCA, the binding signal was -0.0346 E-score.

In the case of TCATGACA, the binding signal is 0.138 E-score.

Turning to GGCGAAAA, the binding signal is -0.106 E-score.

Take CTGCCTCA: the binding signal is -0.0607 E-score.

In the case of CGCGATAC, the binding signal turned out to be 0.254 E-score.

As to CTATAACA, the binding signal amounted to 0.228 E-score.

For the sequence AGGACCAT, the binding signal was -0.0556 E-score.

With ACGCAGCT, the binding signal is -0.108 E-score.

On to CGGGTAGC, for which the binding signal came out at 0.00485 E-score.

GGCAGAAC: the binding signal is -0.11 E-score.

CAAGCCGC: the binding signal is -0.147 E-score.

Regarding ACGCTTTA, the binding signal was -0.0641 E-score.

On to CTCCTCGC, for which the binding signal was -0.00635 E-score.

Take ACTGAAAC: the binding signal was determined as 0.0271 E-score.

CTTCAACC: the binding signal is -0.0183 E-score.

Regarding ATAGGGAG, the binding signal is -0.06 E-score.

On to CCTCGGTA, for which the binding signal was 0.00078 E-score.

Turning to TCCGACCA, the binding signal was determined as 0.148 E-score.

Take CCACAGGG: the binding signal was -0.0462 E-score.

For the sequence GCCCATAA, the binding signal was -0.0742 E-score.

In the case of ACTAATGA, the binding signal was -0.0261 E-score.

Consider CAATGCGG, for which the binding signal turned out to be 0.119 E-score.

Regarding AGAGTTAC, the binding signal was found to be 0.146 E-score.

On to GCGGGGCA, for which the binding signal was found to be 0.0306 E-score.

Consider GCACCTCA, for which the binding signal is 0.162 E-score.

Consider CCCAGACG, for which the binding signal is -0.098 E-score.

In the case of ATGTAGTC, the binding signal was -0.257 E-score.

With GATAGGGA, the binding signal is -0.103 E-score.

Consider AGTGACGG, for which the binding signal was -0.0528 E-score.

For the sequence AACCTCTC, the binding signal was -0.121 E-score.

CCAAGGCA: the binding signal was -0.0215 E-score.

With TACTGCCA, the binding signal was -0.125 E-score.

On to CATCTACC, for which the binding signal was -0.0761 E-score.

For GGAAACTA, the binding signal is -0.0904 E-score.

As for AATGGTAC, the binding signal was 0.0438 E-score.

For AGCGTATA, the binding signal is -0.168 E-score.

For the sequence AAATGTGA, the binding signal was -0.039 E-score.

As for GTGTTAAC, the binding signal turned out to be 0.415 E-score.

On to CGCACCGC, for which the binding signal is 0.209 E-score.

On to AGTTATCG, for which the binding signal was -0.0301 E-score.

For the sequence CGAGCCCC, the binding signal stood at 0.0592 E-score.

On to CACCGAGA, for which the binding signal is 0.276 E-score.

As to AGGCTTTG, the binding signal is -0.185 E-score.

For GCTTTGAC, the binding signal stood at 0.111 E-score.

For AAGAACCG, the binding signal is -0.0614 E-score.

As for TATTGGAA, the binding signal is -0.173 E-score.

In the case of GCTCCGTA, the binding signal is -0.0898 E-score.

As for ACCGGCTG, the binding signal was 0.174 E-score.

Take AGAACCCA: the binding signal was -0.165 E-score.

Turning to CCCAAGCA, the binding signal was 0.00966 E-score.

Regarding GGCGTACA, the binding signal turned out to be 0.283 E-score.

On to ACTCAGAT, for which the binding signal is -0.0982 E-score.

Take ACCGCTAT: the binding signal stood at 0.0115 E-score.

Turning to AATGATAG, the binding signal is -0.211 E-score.

On to AAAGGAAC, for which the binding signal was -0.0214 E-score.

Regarding CAAAAAGG, the binding signal was -0.204 E-score.

CGCCTGAA: the binding signal was -0.0796 E-score.

On to ACGGTACG, for which the binding signal was 0.101 E-score.

On to ACGTTCGG, for which the binding signal was -0.158 E-score.

On to TAGTAGGA, for which the binding signal was found to be 0.0355 E-score.

Consider AACCGTAT, for which the binding signal is -0.141 E-score.

As to ATAAGCCG, the binding signal was -0.217 E-score.

With CAATAGGG, the binding signal was found to be 0.2 E-score.

For the sequence GCGAAGAA, the binding signal was -0.176 E-score.

Consider CCAGATCA, for which the binding signal amounted to 0.103 E-score.

As to ATCATCCC, the binding signal was -0.103 E-score.

On to CCGTACTA, for which the binding signal is 0.0634 E-score.

As for AGTTTCGA, the binding signal was -0.125 E-score.

As to CAGGCATG, the binding signal was -0.0944 E-score.

As to ATGCGGTG, the binding signal was determined as 0.295 E-score.

As to ACTGTTCA, the binding signal is -0.196 E-score.

Consider ATGACTTC, for which the binding signal was -0.0562 E-score.

Regarding CCGAAACC, the binding signal was found to be 0.0721 E-score.

In the case of AAAGAGGG, the binding signal worked out at 0.0524 E-score.

On to ACCGCACA, for which the binding signal came out at 0.232 E-score.

Consider AAACTGAG, for which the binding signal is -0.0216 E-score.

For CTCCCGAC, the binding signal was 0.153 E-score.

Consider TAACCAGA, for which the binding signal was 0.0951 E-score.

With ACCGTCGT, the binding signal came to 0.0134 E-score.

CATGCTAG: the binding signal is -0.0112 E-score.

Take AACCATAT: the binding signal was -0.131 E-score.

Consider GCCAATGA, for which the binding signal is -0.185 E-score.

Regarding ATCCTCTC, the binding signal is -0.0711 E-score.

Regarding AACCACCA, the binding signal was -0.0577 E-score.

Regarding ATTAGAGG, the binding signal was -0.0686 E-score.

CACAGCTA: the binding signal is 0.177 E-score.

For CCTGGGTC, the binding signal was 0.102 E-score.

With AGGTCGTA, the binding signal was -0.0087 E-score.

For CGCCGGTA, the binding signal was -0.00709 E-score.

Turning to CTGCGACC, the binding signal is -0.214 E-score.

For the sequence ACACGGCT, the binding signal was found to be 0.398 E-score.

For AGTAGTTC, the binding signal was -0.0409 E-score.
